In PubChem BioAssay AID1476 (National Center for Advancing Translational Sciences (NCATS), 2009):
Values joined by “and” are separate entries in the source; they are usually repeats but may differ in a detail not shown here. Equal values may be shown once. Out of some 200,000 compounds screened, about 4,500 (2.2%) were called active. Inconclusive means that the source gave no clear call. Such entries were picked first, then a sample of the others. Calls follow the shape of the dose curve; as a rule, active = well fitted inhibition curve with a large enough effect; inconclusive = small, poorly fitted or top-dose-only effect, or effect the other way; inactive = flat fitted curve, though single readings scatter. Potencies of inconclusive entries are doubtful fits and often do not repeat.
Also: nearly all actives have a fitted effect of over 40% in size.
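For max response, negative = inhibition in this document: plate controls were enzyme without inhibitor for no effect and buffer without enzyme for full effect.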
Potency is read from the fitted curve at half-maximal effect; tags tell the direction and shape of the fitted curve.

The compounds below were run against Cruzipain (Trypanosoma cruzi) (UniProt P25779) (assay: qHTS Assay for Promiscuous and Specific Inhibitors of Cruzain (without detergent)). Details: purified cruzain, Z-FR-AMC fluorescence, no detergent.
Sequence of UniProt P25779 (P25779 whole entry, looked up): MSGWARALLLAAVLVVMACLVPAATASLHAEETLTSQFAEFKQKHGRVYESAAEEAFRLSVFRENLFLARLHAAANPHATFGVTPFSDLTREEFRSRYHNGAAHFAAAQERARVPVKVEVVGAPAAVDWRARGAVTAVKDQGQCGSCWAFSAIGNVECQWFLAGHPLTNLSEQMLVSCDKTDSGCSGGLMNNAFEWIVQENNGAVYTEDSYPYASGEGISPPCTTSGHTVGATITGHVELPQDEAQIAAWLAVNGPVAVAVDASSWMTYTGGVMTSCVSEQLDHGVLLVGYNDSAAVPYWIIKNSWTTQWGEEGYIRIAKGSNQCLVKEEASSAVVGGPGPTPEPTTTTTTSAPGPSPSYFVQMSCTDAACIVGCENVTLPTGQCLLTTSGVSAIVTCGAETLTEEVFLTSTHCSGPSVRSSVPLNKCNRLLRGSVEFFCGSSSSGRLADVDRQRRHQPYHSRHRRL
Outline: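 Purified cruzain at 1.5 nM, pre-incubated 15 min with compound at room temperature in 100 mM sodium acetate pH 5.5, 5 mM DTT, 0.00005% Triton X-100. Reaction started with 2 uM Z-FR-AMC; AMC fluorescence increase over 60 s gives rate.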
`Cc1ccc(SCC(=O)Nc2ccc3oc(-c4cccc(Cl)c4)nc3c2)cc1` was tested, and the Potency was inconclusive: 5.01 µM [inhibitor, single point].
In the case of `CSc1oc(-c2cccs2)nc1S(=O)(=O)c1ccc(Br)cc1`, the Potency is reported as inconclusive: 31.6 µM [inhibitor, single point].
In the case of `Cc1cccc(Cc2cnc(NC(=O)CN3C(=O)/C(=C/c4ccccc4)SC3=S)s2)c1`, the Potency is reported as inconclusive: 5.01 µM [inhibitor, full curve, poor fit].
With `O=C(NCCc1c[nH]c2ccccc12)C1CCC(Cn2c(=S)[nH]c3ccccc3c2=O)CC1` (stereo not given) the Potency was inconclusive: 39.8 µM [inhibitor, single point].
With `COC(=O)[C@@]1(Cc2ccc(OC)cc2)[C@H]2c3cc(C(=O)N4CCCC4)n(Cc4ccc(OC(F)(F)F)cc4)c3C[C@H]2CN1C(=O)c1ccccc1` the Potency was inconclusive: 20 µM [activator, single point].
In the case of `COc1ccccc1NC(=O)CN(c1ccc(C)cc1)S(=O)(=O)c1c(C)n[nH]c1C`, the Potency is reported as inconclusive: 39.8 µM [activator, single point].
For `COc1ccc(C2CC(=O)c3cc(-c4nc(-c5cccc(Cl)c5)cs4)c(=O)[nH]c3C2)cc1` (stereo not given), the Potency was inconclusive: 31.6 µM [inhibitor, single point].
In the case of `Cc1nn(Cc2ccc(F)cc2)c(C)c1NC(=O)c1cnn2c1NC(c1ccccc1)CC2C(F)(F)F` (stereo not given), the Potency is reported as inconclusive: 25.1 µM [activator, partial curve].
With `CCC1CN(C(=O)N2CCC(C(=O)N3CCN(c4ccccc4F)CC3)CC2)c2ccccc2O1` (stereo not given) the max response, negative = inhibition was inactive: 2.89%.
In the case of `CC1C(=O)OC2CC34C5CC(C(C)(C)C)C36C(OC(=O)C6O)OC4(C(=O)O5)C21O` (stereo not given), the max response, negative = inhibition is reported as inactive: 0.971%.
For `CCOc1c(Cl)cc(C(=O)N(Cc2ccc(N(C)C)cc2)Cc2ccco2)cc1Cl`, the Potency was inconclusive: 25.1 µM [inhibitor, partial curve].
`COc1ccc2c(c1)c(CC(=O)OCC(=O)O)c(C)n2C(=O)c1ccc(Cl)cc1` was tested, and the Potency was inconclusive: 15.8 µM [activator, single point].
In the case of `Cc1cccc(CNC(=O)CCCN2C(=O)CCn3nc(-c4cccn4C)cc32)c1`, the Potency is reported as inconclusive: 39.8 µM [activator, single point].
In the case of `Cc1nn(Cc2ccc(Cl)cc2)c(C)c1NC(=O)c1cc(-c2ccc3c(c2)OCO3)on1`, the Potency is reported as inconclusive: 31.6 µM [inhibitor, single point].
`O=c1c2c(-c3cccs3)csc2ncn1-c1ccc(Br)cc1` was tested, and the Potency was inconclusive: 39.8 µM [inhibitor, single point].
In the case of `Cc1ccc2c(c1)c1c3n2CCN(C(=O)c2cccc(C(F)(F)F)c2)C3CCC1` (stereo not given), the Potency is reported as active: 0.631 µM.
`CC1(C)Cc2c(c(N3CCOCC3)nc3sc4c(N5CCOCC5)nnnc4c23)CS1` was tested, and the Potency was inconclusive: 39.8 µM [activator, single point].
With `COCCNC(=O)c1c(N)n(/N=C/c2cccs2)c2nc3ccccc3nc12` the Potency was inconclusive: 31.6 µM [activator, single point].
`O=C(COc1ccc(F)cc1)NCc1ccc2c(c1)CCN2C(=O)c1ccccc1` was tested, and the max response, negative = inhibition was inactive: 21.1%.
`COc1cc(/C=N/NC(=O)c2ccc(-c3ccccc3)cc2)cc(OC)c1OC` was tested, and the Potency was inconclusive: 31.6 µM [activator, single point].
For `CCc1ccc(OCC(=O)Nc2ncn[nH]2)c(Br)c1`, the max response, negative = inhibition was inactive: -6.22%.
With `O=C(Nc1nc(-c2ccccc2)cs1)c1cccs1` the max response, negative = inhibition was inactive: 1.78%.
For `Cc1cccc(CC(=O)N2CCN=C2SCc2ccc([N+](=O)[O-])cc2)c1`, the max response, negative = inhibition was inactive: -7.03%.
With `O=c1ccc2cc(S(=O)(=O)Nc3ccc(OC(F)(F)F)cc3)ccc2[nH]1` the max response, negative = inhibition was inactive: 8.56%.
`COc1ccc2nc(NC(=O)C3CCCN(S(=O)(=O)c4cccc5nsnc45)C3)sc2c1` (stereo not given) was tested, and the Potency was inconclusive: 31.6 µM [inhibitor, single point].
In the case of `COC(=O)[C@@H]1CC[C@H](C)[C@@H](c2ccc(C)cc2)N1C(=O)c1ccc(/C=N/O[C@@H](C)c2cn([C@H](CO)Cc3ccccc3)nn2)cc1`, the Potency is reported as inconclusive: 6.31 µM [activator, full curve].
In the case of `Cc1ccc(NC2CC(=O)N(c3ccc(C)cc3)C2=O)cc1` (stereo not given), the Potency is reported as inconclusive: 39.8 µM [inhibitor, single point].
In the case of `COc1ccc(CC(=O)N2CCc3cc(OC)c(OC)cc3C2COc2ccc3c(C)cc(=O)oc3c2)cc1OC` (stereo not given), the Potency is reported as inconclusive: 6.31 µM [activator, single point].
For `Cc1c2oc3c(C)ccc(C(=O)N[C@@H]4C(=O)N[C@H](C(C)C)C(=O)N5CCC[C@H]5C(=O)N(C)CC(=O)N(C)[C@@H](C(C)C)C(=O)O[C@@H]4C)c3nc-2c(C(=O)N[C@@H]2C(=O)N[C@H](C(C)C)C(=O)N3CCC[C@H]3C(=O)N(C)CC(=O)N(C)[C@@H](C(C)C)C(=O)O[C@@H]2C)c(N)c1=O`, the Potency was inconclusive: 12.6 µM [activator, full curve] and inconclusive: 3.98 µM [activator, single point].
With `Cc1ccc2c(c1C)NC(C)CC2C` (stereo not given) the Potency was inconclusive: 5.01 µM [inhibitor, single point].
With `COc1ccc(CC(=O)NC(c2ccccc2)c2ccccc2)cc1S(=O)(=O)N1CCOCC1` the Potency was inconclusive: 31.6 µM [activator, single point].
With `Cc1ccc(C(=O)CNc2ccc(Br)cc2)cc1` the Potency was inconclusive: 20 µM [inhibitor, single point].
`COc1ccccc1NC(=O)C1=C(C)Nc2nc(-c3ccco3)nn2C1c1ccccc1F` (stereo not given) was tested, and the max response, negative = inhibition was inactive: -2.02%.
With `Cc1cc(C=O)c(C)n1-c1cc(C(F)(F)F)ccc1N1CCOCC1` the Potency was inconclusive: 31.6 µM [activator, single point].
`CCOc1ccc(C(=O)Nc2ccc(-n3nncc3-c3ccc(OC)cc3)cc2)cc1` was tested, and the Potency was inconclusive: 25.1 µM [inhibitor, single point].
`COc1ccc(CCn2c(N)c(C(=O)NCc3ccco3)c3nc4ccccc4nc32)cc1OC` was tested, and the Potency was inconclusive: 31.6 µM [activator, single point].
With `O=C(c1ccc(COc2ccc(F)cc2)o1)n1cc(Br)cn1` the Potency was inconclusive: 20 µM [inhibitor, partial curve, poor fit].
For `N#Cc1ccc(N2Cc3ccccc3/C2=N/C(=O)Nc2ccc(Cl)cc2)cc1`, the Potency was inconclusive: 31.6 µM [inhibitor, single point].
With `O=C(CNC(=O)c1ccc(-c2ccccc2)cc1)OCc1ccc(Cl)cc1` the Potency was inconclusive: 39.8 µM [inhibitor, single point].
With `O=c1c2ccccc2[nH]c(=S)n1CCN1CCC(=C(c2ccc(F)cc2)c2ccc(F)cc2)CC1` the Potency was inconclusive: 39.8 µM [inhibitor, single point].
With `CC(=O)c1ccc(-c2cccc(-c3cc(=O)oc4ccc(C(C)(C)C)cc34)c2)cc1` the Potency was active: 28.2 µM.
In the case of `CCOc1nc(Nc2ccc(OC)c(Cl)c2)nc(N2CCN(c3ccc(OC)cc3)CC2)n1`, the Potency is reported as inconclusive: 39.8 µM [inhibitor, single point].
`CCCCC1(C2CCCC2)Cc2cc(OCCCC(=O)O)c(Cl)c(Cl)c2C1=O` (stereo not given) was tested, and the Potency was inconclusive: 39.8 µM [activator, single point].
`Nc1c(S(=O)(=O)c2cccs2)c2nc3ccccc3nc2n1Cc1ccc2c(c1)OCO2` was tested, and the Potency was inconclusive: 39.8 µM [inhibitor, single point].
For `COc1ccc(NC(=O)C2CCC(CNS(=O)(=O)c3ccc(Br)s3)CC2)c(OC)c1` (stereo not given), the max response, negative = inhibition was inactive: 12.2%.
`CCc1ccc(NC(=O)Cn2cc(S(=O)(=O)c3ccc(F)cc3)c(=O)c3cc(OC)ccc32)cc1` was tested, and the max response, negative = inhibition was inactive: -2.86%.
For `CC(=O)c1ccc(NC(=O)CCc2c(C)nn(-c3ccc4nnc(C)n4n3)c2C)cc1`, the max response, negative = inhibition was inactive: -5.58%.
`CCOC(=O)COc1nc(N(C)C)nc(N(C)C)n1` was tested, and the max response, negative = inhibition was inactive: 4.12%.
`CC(=O)/C(=C\c1ccccc1F)C(=O)c1ccccc1` was tested, and the Potency was inconclusive: 3.98 µM [inhibitor, single point].
With `O=C(CCc1ccccc1)NNC(=O)c1ccc(NC(=O)c2ccccc2)cc1` the Potency was inconclusive: 25.1 µM [inhibitor, single point].
`CN1CCN(c2ncc3nc(-c4ccccc4)c(=O)n(Cc4ccc(F)cc4)c3n2)CC1` was tested, and the Potency was inconclusive: 3.16 µM [activator, full curve].
With `O=C1C(O)=C(O)C(=O)C(O)=C1O` the max response, negative = inhibition was inactive: 5.08% and inactive: 3.05%.
For `Cc1nc(-n2nc(C)c(CCC(C)C)c2C)sc1C(=O)Nc1cccc(Cl)c1`, the max response, negative = inhibition was inactive: -6.02%.
For `CCOc1ccc(-c2nc3n(c(=O)c2C#N)CCCS3)cc1`, the Potency was inconclusive: 15.8 µM [inhibitor, partial curve].
`CCn1c(SCC(=O)Nc2ccc3c(c2)c2ccccc2n3CC)nnc1-c1ccco1` was tested, and the Potency was inconclusive: 39.8 µM [activator, single point].
For `O=C(Nc1nccs1)C1CCCN1S(=O)(=O)c1ccc(Cl)cc1` (stereo not given), the max response, negative = inhibition was inactive: 1.45%.
With `CCc1ccc(N/C(SCc2cccc(F)c2)=C(/C#N)C(=O)NCc2ccco2)cc1` the Potency was inconclusive: 20 µM [inhibitor, partial curve].
For `Cn1cnc([N+](=O)[O-])c1Sc1nc(N)nc2c1ncn2[C@H]1C[C@H](O)[C@@H](CO)O1`, the max response, negative = inhibition was inactive: 14.7%.
In the case of `Cc1ccc(C(=O)NC(=S)Nc2ccc(Oc3ccc(Cl)cc3)cc2)cc1`, the Potency is reported as inconclusive: 39.8 µM [inhibitor, single point].
In the case of `CCOc1ccc(N(CC)C(=O)CCc2nc(-c3ccccc3F)no2)cc1`, the Potency is reported as inconclusive: 39.8 µM [activator, single point].
